The conditions of this data set: Gallus gallus; pH 5; 25 °C; GdnHCl; CD; Sodium acetate 0.1 M; reversible: yes.

The values that follow come from FireProtDB (doi:10.1002/pro.5560041010).

For the substance “Lysozyme C wild type (chain not printed)”, the denaturant m value is 2.4 kcal/mol/M, the “denaturant midpoint (higher = more stable)” value came out at 4.12 M and the unfolding free energy came to 10.2 kcal/mol.
